Measurements as given in the supplement of paper PMC8748497.
The list shows a part of the results.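 Rule for the calls: active = GRHL reporter fold change of at least 2 over DMSO at 10 µM; inactive = below 2-fold.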 Repeats are few or missing, and single values can be far off.

What follows are compounds tested on HEK293 GRHL-luciferase reporter (assay: GRHL luciferase reporter activity, fold change over DMSO control; higher = stronger GRHL reporter activation). Conditions: 10 µM; 24 h.
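Note: stable HEK293 line carrying repeated GRHL consensus sites upstream of a minimal promoter driving luciferase, luminescence read 24 h post-treatment, normalized to 0.5% DMSO vehicle wells.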

SMILES	GRHL luciferase reporter activity
COc1ccc(-c2coc3cc(OC)cc(OC)c3c2=O)cc1	active: 2.77
Nc1ccc(S(=O)(=O)Nc2ncccn2)cc1	inactive: 1.03
CCCCCCCCCc1ccc(OCCOCCOCCOCCOCCOCCOCCOCCOCCO)cc1	inactive: 1.47
CC1CC(OC(=O)C(O)c2ccccc2)CC(C)(C)C1 (configuration not stated)	active: 2.11
O=C1CN(/N=C/c2ccc([N+](=O)[O-])o2)C(=O)N1	inactive: 1.39
CC(C)(C)CC(=O)OCC(=O)[C@@]1(O)CC[C@H]2[C@@H]3CCC4=CC(=O)C=C[C@]4(C)[C@H]3[C@@H](O)C[C@@]21C	inactive: 1.11
COc1ccc2cc1Oc1ccc(cc1)C[C@H]1c3cc(c(OC)cc3CCN1C)Oc1c(OC)c(OC)cc3c1[C@H](C2)N(C)CC3	inactive: 1.08
